Among all 44,000 compounds or so, about 340 (0.77%) were called active. About 5% were inconclusive and are not listed. The call rests on the fitted dose curve; in most records, active means well fitted inhibition curve with a large enough effect; inconclusive means small, poorly fitted or top-dose-only effect; inactive means flat fitted curve, though single readings scatter. Some of the results follow.
Assay: Acumen qHTS Assay for Inhibitors of the mTORC1 Signaling Pathway in MEF (Tsc2-/-, p53-/-) Cells: Sytravon;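 further: plate controls were DMSO for no effect and rapamycin for full effect; nearly all actives have a fitted effect of over 50% in size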
Details: phospho-rpS6 immunofluorescence/PI, 24 h; series mostly up to 38.3 µM; activity change, negative = inhibition: at the top concentration
Summary of the method: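 Read-out: phospho-S6 Alexa-488 intensity over PI intensity per well, scored as % active cells using thresholds from rapamycin (7.5 nM) and DMSO controls. Tsc2-/-, p53-/- MEFs exposed to compound for 24 h; PI cell count recorded as viability.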

Activity change, negative = inhibition, inactive:
Cc1ccc(-c2cn3c(n2)sc2cc(C(=O)NC(C)C45CC6CC(CC(C6)C4)C5)ccc23)cc1 (configuration not stated) 6.41%
COc1ccc(N2CC(NC(=O)c3ccc(Br)o3)CC2=O)cc1 (configuration not stated) 0.141%
Cc1ccccc1C(=O)Nc1nc(-c2nnn(-c3ccc(C(C)C)cc3)c2C)ns1 -12.3%
O=C(Cn1ncc2c([nH]c3ccccc32)c1=O)NCC1CCN(Cc2ccc(F)cc2)CC1 -0.0966%
CCOc1ccccc1CNC(=O)C1CCN(S(=O)(=O)c2ccc3c(ccn3C)c2)CC1 -10.5%
CCOc1ccc(C(=O)NCCS(=O)(=O)N2CCN(c3ccccc3F)CC2)cc1OCC -0.0481%
Cc1cc(Cl)ccc1NC(=O)CN(c1ccccc1Br)S(C)(=O)=O 9.64%
COc1ccc(CN2CCN(c3ncnc4sc5c(c34)CC(C)CC5)CC2)cc1F (configuration not stated) -1.25%
Cc1ccc(C)n1-c1nnc(N2CCCC(C(=O)NCc3cccc(Cl)c3)C2)s1 (configuration not stated) -11.8%
CC1=C(C(=O)NCc2ccc(Cl)cc2)C2(CCCCC2)OC1=O 5.49%
CCn1cc(S(=O)(=O)c2cccc(Cl)c2)c(=O)c2cc(F)c(N3CCN(c4ccccc4)CC3)cc21 0.789%
Cc1nc2ccn(Cc3cccs3)c(=O)c2cc1C(=O)Nc1ccccc1 -10.2%
Cc1ccc(Cl)cc1N1CCN(S(=O)(=O)c2ccc3c(c2)CCCN3C(=O)C2CCC2)CC1 -4.22%
O=C(NCCc1ccccc1)c1cc(Sc2cccc(Cl)c2)nc2ccccc12 15.4%
COc1ccc(NS(=O)(=O)c2ccc3[nH]c4c(c3c2)CCCC4)cc1Cl -0.232%
Cc1ccc(CN2C(=O)c3oc4ccc(C)cc4c(=O)c3C2c2ccc(O)cc2)cc1 (configuration not stated) 1.36%
COc1cc(OC)c(NC(=O)Cn2c(=O)oc3cc(S(=O)(=O)N4CCCC4)ccc32)cc1Cl -7.33%
CCC(C)NC(=O)c1nn(-c2ccc(C)cc2)c(=O)n(C)c1=O (configuration not stated) -4.21%
COc1ccc(-c2cc(C(F)(F)F)n3nc(C(=O)Nc4ccccc4SC)cc3n2)cc1OC 6.32%
Cc1ccc(OCC(=O)N(Cc2ccco2)Cc2ccc(C)o2)cc1 4.37%
COc1cc2c(=O)n(CCC(=O)NCC3CCCO3)c(=O)n(CC(=O)Nc3ccc(C)c(C)c3)c2cc1OC (configuration not stated) -9.19%
COc1cccc(CCNC(=O)c2c(O)nc3ccccn3c2=O)c1 0.196%
CC(C)c1cccc(OCCn2c(-c3ccc(Cl)cc3)nc3ccccc3c2=O)c1 -5.14%
CCOc1ccccc1NC(=O)c1cnn2c(C(F)F)cc(-c3ccccc3)nc12 -18.3%
COCCCNC(=O)C1CCN(c2nn3cc(-c4ccc(F)cc4)nc3s2)CC1 -1.87%
Cc1ccccc1C(=O)OCc1cc(=O)n2nc(-c3cccs3)sc2n1 -5.82%
CC1=C(C(=O)Nc2ccccc2)C(c2cccs2)n2nc(SCc3ccccc3F)nc2N1 (configuration not stated) -19.5%
Cc1ccc(C)c(NC(=O)c2cc(S(=O)(=O)N3CCCCCC3)ccc2F)c1 7.38%
O=C(CSc1nnc(NC(=O)Nc2ccccc2)s1)Nc1cccc(F)c1 -0.299%
Cn1cc(S(=O)(=O)c2cccc(Cl)c2)c(=O)c2cc(F)c(N3CCN(c4ccccc4)CC3)cc21 0.359%
Cc1ccc2c(=O)c(C(=O)c3cccc(Cl)c3)cn(CC(=O)Nc3ccc4c(c3)OCCO4)c2n1 -7.53%
COc1ccc(CCCc2nnc(SCC(=O)Nc3ccc(OC)cc3)o2)cc1 -17.5%
O=C(Nc1cc(F)ccc1F)N1CCC(CN2CCCC2)CC1 4.16%
CN1C(=O)Cc2cc(S(=O)(=O)CCC(=O)Nc3ccc(F)c(Cl)c3)ccc21 -6.15%
CCCc1nn2c(=O)cc(COC(=O)c3ccccc3NC(=O)c3ccc(Cl)cc3)nc2s1 -1.34%
CCc1ccccc1Nc1cc(C(=O)NC(C)c2ccccc2)c2ccccc2n1 (configuration not stated) -1.18%
Cc1ccc(NC(=O)C(C)Sc2nc(=O)cc(N)n2-c2ccccc2)cc1 (configuration not stated) -6.5%
CCOC(=O)c1cccc(NC(=O)CCn2nc(C)c(S(=O)(=O)N3CCCCC3)c2C)c1 0%
CCCC(=O)Nc1ccc(-c2nc3ncccc3o2)cc1C -0.146%
CCOC(=O)c1ccccc1NC(=O)N1CCC(CN2CCCCC2)CC1 0%
CCOc1ccc(NC(=O)CN2CCCN(Cc3cc(C)ccc3C)S2(=O)=O)cc1 -25.6%
CCOc1ccc(NC(=O)C2CCN(c3nnc(-n4c(C)ccc4C)s3)CC2)cc1 -1.4%
COCCNC(=O)c1cccc(-n2c(C)nc3cccnc32)c1 -1.23%
Cc1nc(-c2cccnc2)sc1CCNS(=O)(=O)c1ccc(F)cc1 -14.2%
Cc1cc(S(=O)(=O)Nc2ccc(-c3ccc(N4CCCCCC4)nn3)cc2)c(C)cc1Cl 0.88%
COc1ccc2c(CNCCc3ccco3)c(C(=O)O)n(Cc3ccccc3)c2c1 -0.033%
COc1ccc(-c2cc(C(F)(F)F)nc(SCC(=O)NCCc3ccccc3)n2)cc1OC -21.7%
CCc1sc(Nc2cccc(C)c2C)nc1-c1cc2cccc(OC)c2oc1=O -1.83%
COc1cc(OC)cc(-n2c(=O)c3sccc3n(Cc3c(C)cc(C)cc3C)c2=O)c1 -1.33%
Cc1cccc(N2CCN(C(=O)CCn3c(=O)c4cccn4c4cccnc43)CC2C)c1 (configuration not stated) -11.1%
O=C(Nc1cccc(Cl)c1)c1cc2c(=O)[nH]c3ccccc3c2s1 -8.06%
COc1cccc(C(=O)Nc2cccc(-c3cn4c(C)csc4n3)c2)c1OC 9.09%
Cc1cccc(-c2nc3c4ccccc4nc(N4CCN(c5cc(C)ccc5C)CC4)n3n2)c1 -0.199%
CCOc1ccc(-c2nn(CC(=O)NC3CCCC3)c3c2cnc2ccc(F)cc23)cc1 -4.29%
CCc1ccccc1NC(=O)c1cnc2sc(N3CCCC3)nn2c1=O 0.908%
O=C(Nc1ccc(-c2cn3cccnc3n2)cc1)c1cc(Br)ccc1Cl 0.0194%
Cc1nnc(N2CCCC(C(=O)NCCc3ccc(Cl)cc3)C2)c2nn(-c3ccccc3)c(C)c12 (configuration not stated) -4.93%
COc1cccc(N2CCN(C(=O)Cn3c(-c4cccs4)cc4ccccc43)CC2)c1 -11.4%
CC1=C(C(=O)Nc2ccc(C)cc2C)C(c2cccs2)n2nc(SCc3ccccc3Cl)nc2N1 (configuration not stated) -5.82%
COc1ccc(CN2C(=O)c3ccccc3C2C(=O)NCCc2ccccc2)c(OC)c1 (configuration not stated) -1.59%
CC(C)CCNC(=O)CN1N=C(c2ccc(Cl)cc2)CCC1=O -16.7%
Cc1cn2c(=O)cc(COC(=O)COc3ccccc3C)nc2s1 -15.8%

Reference: PubChem BioAssay AID493208 (National Center for Advancing Translational Sciences (NCATS), 2011)
